# In PubChem BioAssay AID652104 (National Center for Advancing Translational Sciences (NCATS), 2013):
# Among all 410,000 compounds or so, about 7,200 (1.8%) were called active. The inconclusive results got no clear call from the source; some entries with a clear call stand among them for comparison. Calls follow the shape of the dose curve; as a rule, active = well fitted activation curve with a large enough effect; inconclusive = small, poorly fitted or top-dose-only effect, or another doubt; inactive = no such curve, though single readings can be large or run the other way. Potencies of inconclusive entries are left out as doubtful fits.
# Assay: qHTS of TDP-43 Inhibitors; also: nearly all actives have a fitted effect of over 50% in size; as to growth rescue (activation): % of control where 0% means no effect
# Conditions: TDP-43 expressing yeast growth rescue, BacTiter-Glo, 24 h; growth rescue (activation): at 46.1 µM (top of the series)
# Summary of the method: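 Readout is BacTiter-Glo luminescence of cell growth, so inhibitors register as activators. TDP-43-expressing yeast at OD600=0.02 in galactose medium, after raffinose pregrowth to mid-log, were incubated with compound for 24 hr at 30 deg C.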
# Potency is read from the fitted curve at half-maximal effect; tags tell the direction and shape of the fitted curve.
SMILES,Potency,growth rescue (activation)
COc1ccc(C(=O)OCC2CN2c2cccc([N+](=O)[O-])c2)cc1 (stereo unspecified),"inconclusive [activator, single point]",
CCC(=O)Nc1ccccc1,"inconclusive [activator, partial curve]",
CSCCC(c1nnnn1Cc1ccccc1)N1CCC(n2c(=O)[nH]c3ccccc32)CC1 (stereo unspecified),"inconclusive [activator, single point]",
CCCn1c(C(=O)c2ccccc2)nc2ccccc21,"inconclusive [activator, partial curve]",
C[N+](C)(C)CCOC(=O)CBr,"inconclusive [activator, full curve]",
N#Cc1cc2c(nc1SCC(=O)Nc1cccc(F)c1)C1CCN2CC1,,inactive: 17.1%
CCC(=NCc1ccco1)c1c(O)n(C2CCCCC2)c(=O)[nH]c1=O,,inactive: 0%
O=C(CF)NC(Nc1cccc2cccnc12)C(Cl)(Cl)Cl (stereo unspecified),"inconclusive [activator, partial curve]",
Cc1ccc2c(c1)N(N=O)CCC2,"inconclusive [activator, full curve, poor fit]",
CC1=NN(c2ccccc2)C(=O)C1/C=C1\C(=O)NC(=O)N(c2cc(C)cc(C)c2)C1=O (stereo unspecified),,inactive: 10.9%
CC(=O)[C@@]1(O)CC[C@H]2[C@@H]3CCC4=CC(=O)CC[C@]4(C)[C@H]3CC[C@@]21C,"inconclusive [activator, partial curve]",
COC(=O)C1=C(c2ccccc2OCc2ccccc2)C[C@@H]2CC[C@H]1N2C(=O)NCc1ccc(F)cc1,"inconclusive [activator, full curve, poor fit]",
COC(=O)C1=C(c2ccccc2OCc2ccccc2)C[C@@H]2CC[C@H]1N2C(=O)NCc1cccc(F)c1,"inconclusive [activator, partial curve, poor fit]",
COc1ccc(CNC(=O)c2ccc(C(C)C)cc2)cc1,"inconclusive [activator, partial curve]",
Nc1ccc(Br)cc1C(=O)c1ccccc1,active: 15.8 µM,
COc1ccc(CN2Cc3cc(-c4ccccc4)ccc3-n3nncc3C2)cc1,"inconclusive [activator, full curve, poor fit]",
C=C(C=O)C[C@@H]1C[C@H](O)C2OC3C[C@]4(C)OC5/C=C\CC6OC7C(CC=CCC6OC5CCCC4OC3CC2O1)OC1CC2OC3CC(=O)OC3C[C@@H](C)C[C@@]2(C)OC1C[C@@H]7C (stereo partly specified),active: 22.4 µM,
COc1ccc(-c2cc(=O)c3c(OC)c(OC)c(OC)cc3o2)cc1,"inconclusive [activator, partial curve]",
CN(C)CC(C(=O)Cc1ccccc1)c1ccccc1 (stereo unspecified),"inconclusive [activator, single point]",
O=C(C(=O)N1CC=C(c2ccccc2)CC1)c1c[nH]c2ccccc12,active: 15.8 µM,
CCOc1ccc2nc(NC(=O)c3cccn(Cc4ccccc4C)c3=O)sc2c1,"inconclusive [activator, partial curve]",

SMILES,Potency,growth rescue (activation)
CC(C)c1cccc(O)c(=O)c1,"inconclusive [activator, single point]",
NN=C1C(Cl)=C(Cl)C(Cl)=C1Cl,active: 17.8 µM,
Cc1cc(NC(=O)c2cccn(Cc3cccc([N+](=O)[O-])c3)c2=O)no1,,inactive: -6.08%
CC(Cc1ccccc1)NC(=O)/C=C/c1ccc(Cl)cc1 (stereo unspecified),,inactive: -4%
c1ccc(N2CCN(c3ncnc4c3nc3n4CCCC3)CC2)cc1,"inconclusive [activator, single point]",
C=CCc1cc(C=C2C(=O)N(C)C(=O)N(C)C2=O)cc(OCC)c1OCc1ccccc1,"inconclusive [activator, single point]",
CN(C)C(=O)Oc1ccnc2cc(Cl)ccc12,"inconclusive [activator, single point]",
CCC(=Nc1ccc2c(c1)CCC2)c1c(O)n(C2CCCCC2)c(=O)[nH]c1=O,"inconclusive [activator, single point]",
Cn1cc(C(=O)OCC(=O)Nc2ccccc2)c2ccccc21,"inconclusive [activator, single point]",
O=C(Cc1ccccc1)OCC(=O)c1ccc(F)cc1,"inconclusive [activator, partial curve]",
O=C(OCCCCN1C(=O)c2ccccc2C1=O)c1ccc(Br)o1,"inconclusive [activator, single point]",
Cc1cc(-c2ccc(C)c(S(=O)(=O)N3CCOc4ccc(Cl)cc43)c2)on1,"inconclusive [activator, partial curve]",
O=C(NC1CCCCCC1)c1ccc[nH]c1=S,"inconclusive [activator, partial curve]",
O=C1CN=C(c2ccccc2)c2c(sc3c2CCCC3)N1,"inconclusive [activator, full curve, poor fit]",
O=c1[nH]c2ccccc2n1C1CCN(C(CCc2ccccc2)c2nnnn2Cc2ccccc2)CC1 (stereo unspecified),"inconclusive [activator, partial curve]",
CC(=O)c1cn(Cc2ccccc2C#N)c2ccccc12,"inconclusive [activator, partial curve]",
CC(=O)OC1C2(CC3N4C(=O)C5(CO)SSC4(CC31O)C(=O)N5C)OC(C)C(C)(C)C2=O (stereo unspecified),"inconclusive [activator, full curve, poor fit]",
COc1cc(Cl)ccc1Nc1ncc(C(=O)N2CCN(c3ccccc3OC)CC2)c2ccccc12,"inconclusive [activator, single point]",
COC(=O)C1=C(c2ccccc2)C[C@@H]2CC[C@H]1N2C(=O)NCc1cccc2ccccc12,"inconclusive [activator, single point]",
Nc1ccccc1Nc1ccc([N+](=O)[O-])cc1[N+](=O)[O-],"inconclusive [activator, single point]",
